# According to paper PMC5892938:
# The list shows a part of the results. At the low end of the ranking the order means little.
# Molecular target: GST-SBP-SLBP (stem-loop binding protein) (UniProt Q14493)
# Assay: targeted RNA Bind-n-Seq;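 further: DESeq read counts versus GST-SBP nonspecific binding control pulldown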
# Settings: RBNS binding buffer: 25 mM Tris pH 7.5, 150 mM KCl, 3 mM MgCl2, 0.1% Tween, 0.5 mg/mL BSA, 1 mM DTT; 27 nM protein, 750 pM RNA pool; temperature not stated; high values mean tight binding
row,Sequence,binding signal (log2 fold change)
1,GGUCACGUCUCAAUCAACUCUAUCCCCAGGGAAAUCCCUGGUAAACUCAACAGCUCGCAGUCAAG,0.0918
2,GGUCACGUCUCAAUCAACUCGUUUUCAGGAGUUUCCUCCUGUUUUUUCAACAGCUCGCAGUCAAG,0.0127
3,GGUCACGUCUCAAUCAACUCAUGUCCAGGAGUUUUCUCCUGUAAUUUCAACAGCUCGCAGUCAAG,-0.275
4,GGUCACGUCUCAAUCAACUCUAUCUCAGGAGUUUUCUCCUGCUAUUUCAACAGCUCGCAGUCAAG,0.038
5,GGUCACGUCUCAAUCAACUCAAGUCCCAGGGAAACCCCUGGCAAUUUCAACAGCUCGCAGUCAAG,-0.327
6,GGUCACGUCUCAAUCAACUCAUCCUCAGGAGUUUGCUCCUGCUUUUUCAACAGCUCGCAGUCAAG,-0.0583
7,GGUCACGUCUCAAUCAACUCUUUUUCCAGGGAAAGCCCUGGCAGUCUCAACAGCUCGCAGUCAAG,0.0588
8,GGUCACGUCUCAAUCAACUCCUCAGAGGGGGGGAAAACCCCUUUGCCCUCAAUAUCAACAGCUCGCAGUCAAG,-0.131
9,GGUCACGUCUCAAUCAACUCAUCGCCCAGGGAAAUCCCUGGUUUUCUCAACAGCUCGCAGUCAAG,-0.0557
10,GGUCACGUCUCAAUCAACUCAUCCCCAGGAGUUUUCUCCUGUAAUUUCAACAGCUCGCAGUCAAG,-0.142
11,GGUCACGUCUCAAUCAACUCAUUUUCCAGGGAAACCCCUGGUAUUCUCAACAGCUCGCAGUCAAG,-0.0144
12,GGUCACGUCUCAAUCAACUCUUCCCCCAGGGAAACCCCUGGCUAUUUCAACAGCUCGCAGUCAAG,0.251
13,GGUCACGUCUCAAUCAACUCUUCUCCAGGAGUUUACUCCUGUAAUUUCAACAGCUCGCAGUCAAG,0.104
14,GGUCACGUCUCAAUCAACUCUUCUUCCAGGGAAACCCCUGGUAAUGUCAACAGCUCGCAGUCAAG,0.176
15,GGUCACGUCUCAAUCAACUCUACUCCAGGAGUUUACUCCUGCUAUCUCAACAGCUCGCAGUCAAG,0.154
16,GGUCACGUCUCAAUCAACUCAUUUUCAGGAGUUUCCUCCUGUAAUCUCAACAGCUCGCAGUCAAG,0.0778
17,GGUCACGUCUCAAUCAACUCAAUCUCAGGAGUUUUCUCCUGCAUGUUCAACAGCUCGCAGUCAAG,0.127
18,GGUCACGUCUCAAUCAACUCUAUCCCCAGGGAAAACCCUGGUAUUUUCAACAGCUCGCAGUCAAG,0.0351
19,GGUCACGUCUCAAUCAACUCAUCGCCCAGGGAAACCCCUGGUUUUUUCAACAGCUCGCAGUCAAG,-0.133

row,Sequence,binding signal (log2 fold change)
1,GGUCACGUCUCAAUCAACUCAUCUCCCAGGGAAAGCCCUGGUUAUCUCAACAGCUCGCAGUCAAG,-0.0135
2,GGUCACGUCUCAAUCAACUCUAUCCCCAGGGAAAACCCUGGUUAAUUCAACAGCUCGCAGUCAAG,0.161
3,GGUCACGUCUCAAUCAACUCUAUCUCCAGGGAAAUCCCUGGUUUUCUCAACAGCUCGCAGUCAAG,-0.0211
4,GGUCACGUCUCAAUCAACUCAUCUUCCAGGGAAACCCCUGGUAUAUUCAACAGCUCGCAGUCAAG,0.0311
5,GGUCACGUCUCAAUCAACUCUAUAGAGGGGGGGAAAACCCCUUUGCCCUCAACUUCAACAGCUCGCAGUCAAG,-0.405
6,GGUCACGUCUCAAUCAACUCUUUUUCAGGAGUUUUCUCCUGUUUUUUCAACAGCUCGCAGUCAAG,-0.0431
7,GGUCACGUCUCAAUCAACUCAACUUCCAGGGAAAUCCCUGGUAAACUCAACAGCUCGCAGUCAAG,-0.251
8,GGUCACGUCUCAAUCAACUCAAUAGAGGGGGGGAAAACCCCUUUACCCUCAAUCUCAACAGCUCGCAGUCAAG,-0.088
9,GGUCACGUCUCAAUCAACUCUACUUCAGGAGUUUUCUCCUGCUAAUUCAACAGCUCGCAGUCAAG,-0.17
10,GGUCACGUCUCAAUCAACUCAUUUCCAGGAGUUUCCUCCUGCUAUCUCAACAGCUCGCAGUCAAG,0.149
11,GGUCACGUCUCAAUCAACUCAACGCCAGGAGUUUUCUCCUGCUAAUUCAACAGCUCGCAGUCAAG,-0.0133
12,GGUCACGUCUCAAUCAACUCUAUCUCCAGGGAAAACCCUGGCUUUUUCAACAGCUCGCAGUCAAG,-0.176
13,GGUCACGUCUCAAUCAACUCAUUUCCCAGGGAAAACCCUGGCAUUCUCAACAGCUCGCAGUCAAG,0.167
14,GGUCACGUCUCAAUCAACUCUUCUCCCAGGGAAAACCCUGGCAAUCUCAACAGCUCGCAGUCAAG,-0.0664
15,GGUCACGUCUCAAUCAACUCUUUAGAGGGGGGGAAAACCCCUUUGCCCUCGUCAUCAACAGCUCGCAGUCAAG,-0.128
16,GGUCACGUCUCAAUCAACUCAUCUCCAGGAGUUUUCUCCUGCAAACUCAACAGCUCGCAGUCAAG,0.16
17,GGUCACGUCUCAAUCAACUCCCUAGAGGGGGGGAAAACCCCUUUGCCCUCGUCAUCAACAGCUCGCAGUCAAG,-0.457
18,GGUCACGUCUCAAUCAACUCUACUUCCAGGGAAACCCCUGGCUUAUUCAACAGCUCGCAGUCAAG,0.218
